The values that follow come from the supplement of paper PMC12217912.

B1: TEV protease; numbered along this chain (parent)
chain: MGESLFKGPRDYNPISSSICHLTNESDGHTTSLYGIGFGPFIITNKHLFRRNNGTLVVQSLHGVFKVKDTTTLQQHLVDGRDMIIIRMPKDFPPFPQKLKFREPQREERICLVTTNFQTKSMSSMVSDTSCTFPSGDGIFWKHWIQTKDGQCGSPLVSTRDGFIVGIHSASNFTNTNNYFTSVPKNFMELLTNQEAQQWVSGWRLNADSVLWGGHKVFMVKPEEPFQPVKEATQL

Some of the results follow. The full chains were built here from the parent and the listed change. Inactive controls read about 0.05.

The test covers variants of B1. In words: raw area under fraction-flipped curve 0-4 h after induction (AUC4h, not background-subtracted), DNA-recorder readout of cleavage of the substrate (dimensionless); higher = more cleavage of the substrate by the protease variant. The conditions noted are these: temperature: 34 °C; time window: 0-4 h after rhamnose induction. Here is the method:
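In vivo DNA recorder in E. coli TOP10(DE3) ΔrhaA at 34 °C. Each TEVp single-site mutant (parent TEVp 0) is paired with a single-site variant of the 7-mer TEVs (canonical ENLYFQ|S). The substrate sits between flexible linkers in a Bxb1-sfGFP-TEVs-SsrA fusion, so cleavage stabilises Bxb1 and speeds flipping of a recombination array, read by NGS. The value is the raw area under the fraction-flipped curve over 0-4 h after rhamnose induction (AUC4h), with ≥20 reads per time point. It is not background-subtracted; inactive controls average about 0.047.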
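Also: Bxb1 expression induced with 0.2% (w/v) L-rhamnose at OD600 near 0.5, cultures sampled hourly, flipped fraction per protease–substrate barcode pair counted by paired-end Illumina sequencing.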

On to MGESLFKGPRDYNPISSSICHLTNESDGHTTSLYGIGFGPFIITNKHLFRRNNGTLVVQSLHGVFKVKDTTTLQQHLVDGRDMIIIRMPKDFPPFPQKLKFREPQREERICLVTTNFQTKSMSSMVSDTSCTFPSGDGIFWKHWIQLKDGQCGSPLVSTRDGFIVGIHSASNFTNTNNYFTSVPKNFMELLTNQEAQQWVSGWRLNADSVLWGGHKVFMVKPEEPFQPVKEATQL [T147L], for which the “area with substrate ENLYFCS” value is 0.0597, the “area with substrate ENLYFDS” value amounted to 0.0576, the “area with substrate ENLYFES” value was 0.0429 and the “area with substrate ENLYFFS” value was 0.0754. Besides, the “area with substrate ENLYFGS” value worked out at 0.0572, the “area with substrate ENLYFHS” value came out at 0.0537, the “area with substrate ENLYFIS” value was 0.0516 and the “area with substrate ENLYFKS” value was found to be 0.062. The “area with substrate ENLYFLS” value was determined as 0.0594, the “area with substrate ENLYFMS” value came to 0.0548, the “area with substrate ENLYFNS” value was 0.0972 and the “area with substrate ENLYFPS” value was 0.056. Moreover, the “area with substrate ENLYFRS” value is 0.0556, the “area with substrate ENLYFTS” value was found to be 0.0647, the “area with substrate ENLYFVS” value stood at 0.0551 and the “area with substrate ENLYFWS” value is 0.0497. Also, the “area with substrate ENLYFYS” value stood at 0.057.

MGESLFKGPRDYNPISSSICHLTNESDGHTTSLYGIGFGPFIITNKHLFRRNNGTLVVQSLHGVFKVKDTTTLQQHLVDGRDMIIIRMPKDFPPFPQKLKFREPQREERICLVTTNFQTKSMSSMVSDTSCTFPSGDGEFWKHWIQTKDGQCGSPLVSTRDGFIVGIHSASNFTNTNNYFTSVPKNFMELLTNQEAQQWVSGWRLNADSVLWGGHKVFMVKPEEPFQPVKEATQL [I139E]: the “area with substrate ENLYFCS” value was determined as 0.0755, the “area with substrate ENLYFDS” value stood at 0.0566, the “area with substrate ENLYFES” value came out at 0.0709 and the “area with substrate ENLYFFS” value came to 0.0811. Moreover, the “area with substrate ENLYFIS” value came out at 0.0567, the “area with substrate ENLYFKS” value was found to be 0.0599, the “area with substrate ENLYFPS” value was 0.0494 and the “area with substrate ENLYFRS” value is 0.0561. For the same variant, the “area with substrate ENLYFVS” value stood at 0.0548 and the “area with substrate ENLYFWS” value came out at 0.0601.

MGESLFKGPRDYNPISSSICHLTNESDGHTTSLYGIGFGPFIITNKHLFRRNNGTLVVQSLHGVFKVKDTTTLQQHLVDGRDMIIIRMPKDFPPFPQKLKFREPQREERICLVTTNFQTKSMSSMVSDTSCTFPSGDGIFWKHWIQTKDGQCGSPLVSTRDGFIVGIHSASNFTNTNFYFTSVPKNFMELLTNQEAQQWVSGWRLNADSVLWGGHKVFMVKPEEPFQPVKEATQL [N178F]: the “area with substrate ENLYFCS” value is 0.0668, the “area with substrate ENLYFHS” value was 0.0822, the “area with substrate ENLYFIS” value is 0.0384 and the “area with substrate ENLYFLS” value turned out to be 0.063. The “area with substrate ENLYFMS” value was determined as 0.0917, the “area with substrate ENLYFPS” value was determined as 0.0583 and the “area with substrate ENLYFRS” value was 0.0564.

For the variant MGESLFKGPRDYNPISSSICHLTNESDGHTTSLYGIGFGPFIITNKHLFRRNNGTLVVQSLHGVFKVKDTTTLQQHLVDGRDMIIIRMPKDFPPFPQKLKFREPQREERICLVTTNFQTKSMSSMVSDTSCTFPSGDGIFWKHWIQTKDGQCGSPLVSTRDGFIVGIHSASNFTNTNNYFTSVPKNFMELLTNQEAQQWVSGWRLNADSVKWGGHKVFMVKPEEPFQPVKEATQL [L211K], the “area with substrate ENLYFCS” value was 0.0574, the “area with substrate ENLYFES” value was found to be 0.0627, the “area with substrate ENLYFGS” value was 0.087 and the “area with substrate ENLYFIS” value is 0.0507. Besides, the “area with substrate ENLYFLS” value worked out at 0.0635, the “area with substrate ENLYFNS” value stood at 0.0528, the “area with substrate ENLYFPS” value was 0.0542 and the “area with substrate ENLYFTS” value was 0.0684. The “area with substrate ENLYFWS” value turned out to be 0.0572 and the “area with substrate ENLYFYS” value stood at 0.0499.

In the case of MGESLFKGPRDYNPISSSICHLTNESDGHTTSLYGIGFGPFIITNKHLFRRNNGTLVVQSLHGVSKVKDTTTLQQHLVDGRDMIIIRMPKDFPPFPQKLKFREPQREERICLVTTNFQTKSMSSMVSDTSCTFPSGDGIFWKHWIQTKDGQCGSPLVSTRDGFIVGIHSASNFTNTNNYFTSVPKNFMELLTNQEAQQWVSGWRLNADSVLWGGHKVFMVKPEEPFQPVKEATQL [F65S], the “area with substrate ENLYFCS” value was determined as 0.0542, the “area with substrate ENLYFES” value amounted to 0.0634, the “area with substrate ENLYFFS” value came to 0.0669 and the “area with substrate ENLYFHS” value was found to be 0.0492. Besides, the “area with substrate ENLYFIS” value was determined as 0.0532, the “area with substrate ENLYFLS” value was 0.0719, the “area with substrate ENLYFMS” value stood at 0.0572 and the “area with substrate ENLYFNS” value turned out to be 0.0597. For the same variant, the “area with substrate ENLYFPS” value stood at 0.0382, the “area with substrate ENLYFRS” value amounted to 0.0501, the “area with substrate ENLYFTS” value stood at 0.059 and the “area with substrate ENLYFWS” value is 0.0639.

Take MGESLFKGPRDYNPISSSICHLTNESDGHTTSLYGIGFGPFIITNKHLFRRNNGTLVVQSLHGVFKVKDTTTLQQHLVDGRDMIIIRMPKDFPPFPQKLKFREPQREERICLVTTNFQTKSMSSMVSDTSCTFSSGDGIFWKHWIQTKDGQCGSPLVSTRDGFIVGIHSASNFTNTNNYFTSVPKNFMELLTNQEAQQWVSGWRLNADSVLWGGHKVFMVKPEEPFQPVKEATQL [P134S]: the “area with substrate ENLYFCS” value amounted to 0.0579, the “area with substrate ENLYFFS” value stood at 0.0714, the “area with substrate ENLYFHS” value is 0.0672 and the “area with substrate ENLYFIS” value worked out at 0.0563. The “area with substrate ENLYFMS” value stood at 0.0604, the “area with substrate ENLYFNS” value amounted to 0.0665, the “area with substrate ENLYFPS” value was 0.0467 and the “area with substrate ENLYFSS” value worked out at 0.0544. In addition, the “area with substrate ENLYFYS” value is 0.0607.

As for MGESLFKGPRDYNPISSSICHLTNESDGHTTSLYGIGFGPFIITNKHLFRRNNGTLVVQSLHGVFKVKDTTTLQQHLVDGRDMIIIRMPKDFPPFPQKLKFREPQREERICLVTTNFQTKSMSSMVSDTSCTFPSGDGIFWKHWIQTKDGQCGSPLVSTRDGFIVGIHSASNFTNTNNYFTSVPKNFMELLTNQETQQWVSGWRLNADSVLWGGHKVFMVKPEEPFQPVKEATQL [A196T], the “area with substrate ENLYFCS” value was 0.0642, the “area with substrate ENLYFDS” value worked out at 0.0633, the “area with substrate ENLYFES” value was 0.0574 and the “area with substrate ENLYFFS” value was 0.0663. In addition, the “area with substrate ENLYFGS” value was 0.0597, the “area with substrate ENLYFHS” value was 0.0637, the “area with substrate ENLYFIS” value came to 0.0443 and the “area with substrate ENLYFKS” value was determined as 0.0584. Further, the “area with substrate ENLYFLS” value is 0.0671, the “area with substrate ENLYFMS” value worked out at 0.0612, the “area with substrate ENLYFPS” value amounted to 0.045 and the “area with substrate ENLYFRS” value worked out at 0.0534. The “area with substrate ENLYFSS” value is 0.0634, the “area with substrate ENLYFTS” value amounted to 0.0524 and the “area with substrate ENLYFWS” value stood at 0.0665.

As for MGESLFKGPRDYNPISSSICHLTNESDGHTTSLYGIGFGPFIITNKHLFRRNNGTLVVQSLHGVFKVKDTTTLQQHLVDGRDMIIIRMPKDFPPFPQKLKFREPQREERICLVTTNFQTKSMSSMVSPTSCTFPSGDGIFWKHWIQTKDGQCGSPLVSTRDGFIVGIHSASNFTNTNNYFTSVPKNFMELLTNQEAQQWVSGWRLNADSVLWGGHKVFMVKPEEPFQPVKEATQL [D128P], the “area with substrate ENLYFCS” value worked out at 0.0566, the “area with substrate ENLYFES” value amounted to 0.0722, the “area with substrate ENLYFGS” value was 0.0484 and the “area with substrate ENLYFIS” value amounted to 0.0604. In addition, the “area with substrate ENLYFKS” value was 0.0833, the “area with substrate ENLYFMS” value was found to be 0.0616, the “area with substrate ENLYFNS” value came out at 0.0482 and the “area with substrate ENLYFPS” value is 0.0608. In addition, the “area with substrate ENLYFTS” value amounted to 0.0671, the “area with substrate ENLYFVS” value was 0.0592 and the “area with substrate ENLYFWS” value was found to be 0.063.

Consider MGESLFKGPRDYNPISSSICHLTNESDGHTTSLYGIGFGPFIITNKHLFRRNNGTLVVQSLHGVFKVKDTTTLQQHLVDGRDMIIIRMPKDFPPFPQKLKFREPQREERICLVTTNFQTKSMSSMVSDTSCTFPQGDGIFWKHWIQTKDGQCGSPLVSTRDGFIVGIHSASNFTNTNNYFTSVPKNFMELLTNQEAQQWVSGWRLNADSVLWGGHKVFMVKPEEPFQPVKEATQL [S135Q], for which the “area with substrate ENLYFCS” value worked out at 0.0282, the “area with substrate ENLYFES” value amounted to 0.0509, the “area with substrate ENLYFFS” value was determined as 0.0644 and the “area with substrate ENLYFHS” value was found to be 0.065. Besides, the “area with substrate ENLYFIS” value stood at 0.0596, the “area with substrate ENLYFKS” value was found to be 0.0686, the “area with substrate ENLYFMS” value stood at 0.0633 and the “area with substrate ENLYFNS” value was determined as 0.0812. In addition, the “area with substrate ENLYFPS” value was 0.0558, the “area with substrate ENLYFRS” value was 0.0505, the “area with substrate ENLYFSS” value was 0.0508 and the “area with substrate ENLYFTS” value came out at 0.0589. Besides, the “area with substrate ENLYFWS” value turned out to be 0.0612.
